# According to the supplement of paper PMC12632987:
# Whole data set: some 1,800 sequences, median “median log2 fold change of GCK-ALFA target abundance (FLAG IP / Myc IP barcode read proportion)” near 0.14, cut for the lowest 2% near -0.84. This is one part of the list.
# T1: TRAF2, Q12933
# T1 chain: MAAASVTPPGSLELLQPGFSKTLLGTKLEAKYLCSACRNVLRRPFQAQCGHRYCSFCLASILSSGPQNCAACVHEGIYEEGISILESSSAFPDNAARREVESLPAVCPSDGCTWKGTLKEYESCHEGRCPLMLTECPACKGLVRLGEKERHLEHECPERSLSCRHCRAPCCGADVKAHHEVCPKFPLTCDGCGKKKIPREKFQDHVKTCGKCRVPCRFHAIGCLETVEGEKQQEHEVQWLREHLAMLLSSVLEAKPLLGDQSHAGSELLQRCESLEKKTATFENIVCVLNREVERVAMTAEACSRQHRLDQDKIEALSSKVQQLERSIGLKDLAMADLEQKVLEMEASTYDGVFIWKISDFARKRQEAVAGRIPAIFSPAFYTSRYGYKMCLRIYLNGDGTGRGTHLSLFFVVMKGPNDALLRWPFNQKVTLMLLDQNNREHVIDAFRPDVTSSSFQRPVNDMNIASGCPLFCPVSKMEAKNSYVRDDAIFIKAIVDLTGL
# B1: traf2_out_19_87_1994 (protein)
# chain: NEKAREEMREYQDKLVDYKDEAVKLAQEALGLSEEEARALSRLSIEALRETVDAKFAEAIAADPEKAEELEAAREEIDKLLDKAKEAAKKLAEAFEEYEK
# B2: traf2_out_18_167_1830 (protein)
# chain: EEEIRKKKSELMDKMVEWSEVRREAQELLQTLEKDPSKLPEVLKKLEELAEKTGKFKEEVEAIKKLPPEEALKAAKELLEKIIEEAQRKMNELYKEYEKL
# B3: traf2_out_17_162_1628 (protein)
# chain: SPREERLEELKRRLEELEEKRKRLEELSKKIDELSKEELTDYLVEASEARREARELAEEARRLREELNDPELEELIRRAEELAEKFQRIANKFYEKLLEK
# B4: traf2_out_13_95_1198 (protein)
# chain: EEEKTRKIREVTNRIADELLDFVDATAERVEEETGDAAAKARILAALNGRGVSAAIEVLRRLAAEDPEHAAVYLAAAAELEAKRREAGRRVAEELKKIEE
# B5: traf2_out_11_169_832 (protein)
# chain: EEAEKNRKINDKALELEDKAKEELKKYALEAAKKEGLDVEEVEKIFEENKGKSLSAIAAALIEWARSKGAEKFAAAILAKYEELKDKINKEMTKFIKELE
# B6: traf2_out_20_3_2055 (protein)
# chain: EELLKKIEELLKKAEELLKEIEKLADPETAKRLREAWEEVLKAKKEGLEEFLIAVSRLRRLALELAEEARREGREELAALLEELADTYGRIANLVYKLIE
# B7: traf2_out_17_162_1508 (protein)
# chain: SPIEEFRKRAEEELERLEEELKRLEEKMEKLEEMSKEEISDLLVEASELRRRARELAEEIRKHKEELGEEEAEELIERAEEIAERLQRIANKAYKELLKK
# B8: traf2_out_13_95_1122 (protein)
# chain: SAEVAAEINKIADEMEERRLAILEELLKIAKEKGIAEEEIQAILEFAKHGTINEVIHRLKELAKKYPEMKEELEAAIAELEAIRREAGRKVAEILKKEKE
# B9: traf2_out_5_86_2373 (protein)
# chain: EEAKRDANHDRLVATWLAAEKKVYAKAKELGLNASQFGEVLEEMAKMIDPEKREAALARVRALAKEAGLSEEQTAELVALLTEQAEEIRAVLDAIRAESA
# B10: traf2_out_17_162_1482 (protein)
# chain: GELKERLEELEKELEELKKRLEELEKKLEKLDEMSKEELTDLLVEASELRRRALELAEEIRELEPEIGKEKAEKLRKEALEIAERLQRIANKIYKKLEEK
# B11: traf2_out_17_162_1549 (protein)
# chain: GELEERKKELEERLKELEKKAKELEKKLPDLPKLSKEELTDLLVEASEARREARLLAEEIRELEEEIGEEEAEELRERAEEVAEKLQRIANEIYKELEKK
# B12: traf2_out_17_162_1556 (protein)
# chain: EELEEELEELEEELEELEEELERLKEKLKNLETLSKEELTDLLVEASEKRREALELALRLEELREEIGEERAEELIERAEELAEEFQRIANEIYKELLKK
# B13: traf2_out_18_3_1925 (protein)
# chain: SEEELKKVSERIDEIIDEAEAKAREALDRIRARHPEAAAEVDRLEALLDAGAGPFGILEELAELARRLGDEELAKELEEFLKKKRKELSKLVEEYLELRK
# B14: traf2_out_17_178_1740 (protein)
# chain: SKEEIRKKIAELADEKLDVAREAADELRAIAEAEGILTPELRARLDLVARTSNRYAFEEVANELIALSPDKEKVQALLEETTAKLTELDKKIQAAVDKLE
# B15: traf2_out_11_104_636 (protein)
# chain: LTREQAREFNDFAMEKEDEAKAVAAALAARLRALGEDEAAARVEAALAHPGAGISTFKNLLEDLRPTLSPEAAAAADEAIEKLEELQKEVSEKLNELEKK
# B16: traf2_out_11_155_756 (protein)
# chain: EEKLKLLNEMNNKVNDVFDEAREKALELAKEAAEKHPEHKEEIEKKIEENKHFSAKSFILSLIRLFKELGLEEEAEKLEKLLEETQKKANEIVIETEKKL
# B17: traf2_out_11_169_831 (protein)
# chain: EEAEKNRKINEKALELEDEAKEKLKEYALKAAKEEGLDEAEVKKIFEANKGKSLSAIAAALIAWAKSLGKEEFAEAILKKYEELKEEINKKMTAFIKSLE
# B18: traf2_out_1_158_921 (protein)
# chain: DTKRKLMLGVVKLITQDAVDSARENGDEETAEALRRFGEEVIKIVEELLIEKNESVEKVIEAIEKLTEEAMKELDPETAEAVRRMGRQIISGLRQVDKLM
# B19: traf2_out_20_3_2096 (protein)
# chain: EELKKELEKALEEAEKLIKEAIKLADEETAKKLKELLKKLKEAKELPLDDQLVELSEVRRELLELAEKAKKEGKEELAKILEEAADKINRAMNLAYKIIE
# B20: traf2_out_18_167_1841 (protein)
# chain: EEEKRKRREELMDRLVDLSEVKRAARRALLALETDPSAVPAELAALEEAAKKVPELQPLVDAAKAAYAAGDREGLRAELEALIAEAQKLMNEVMKELEAL
# B21: traf2_out_20_3_2207 (protein)
# chain: SELEEELEKELEKAIKLLEEAKKLADPETAKVLDELIKRLKESRKLSYEDRLVVLSEIRAEVLRLAQEARAAGDEELAKVLEEAAEAIQRAMNLVYKIIE
# B22: traf2_out_11_104_654 (protein)
# chain: LTREQAREFNDFAMEARDRAKEIARETAEELRRRGHEEEAARVEAALNDPGAGISTFRNLLEELLPQLDEESQKVAREAIERLRELQKEVSDKLNELLAK
# B23: traf2_out_17_162_1485 (protein)
# chain: AALEAKLKALQAELKALQKKLAELEKKLENLDKLSKEELTDLLVEVSELKRKARELAVQLEELQKQTGKPELKTLIQEARDLAEKLQKIANIIYKKLEEK
# B24: traf2_out_17_162_1639 (protein)
# chain: SEIERRLEELERRLEELERRARELEELAKRVEELSREELSDLIVEASEVIREARELIQELEELKDELDPERYEELTRRAEEIIRRAQRVAQRFLDALEAK
# B25: traf2_out_1_27_996 (protein)
# chain: SDEEFRARLQRLDREIAAADPETALRLVAEGMREAIERGLGDAGILAIIAVSSVSDPELAERILEVAREVMEEEGVSEEDIERILERARNEKRRLDEALA
# B26: traf2_out_20_3_2216 (protein)
# chain: EELKKKVLEKLEEIEKLLEEAKPLLKPEDYKELKKLLEEAKKALEEDLTDALVYLSELRRKALRLAQEAKAAGNEKLAELLEKMAELANKAAGLVLKMIE
# B27: traf2_out_19_16_1969 (protein)
# chain: MKEELEKIKKELEEIEKEVRELEKYFRENKETLTREELADLLVELSELKRKAQEIKEKLETLKGVDEEEKEKLIKRAERIIEEAQRLMNEVVDRYLELLK
# B28: traf2_out_11_155_716 (protein)
# chain: EKELKLNQEFTDKVSEIADEAEAKLEEIIARVEKEDPEVAAELRAMMEKHKDSGITTKLLEAQRILEKAGYEEEAKEVKELLEEYQKKANEIWQEYEKKL
# B29: traf2_out_12_187_966 (protein)
# chain: SVQDELIAAANAALKAALKALEKEAPKRERFKEFLERLKEVAELLKKHPEVAADAAVAASLVLRAVRLFEEGLPEEEIERAAEEAEEELEELLEELKALE
# Molecular target: T1, TRAF2, Q12933
# Assay: median log2 fold change of GCK-ALFA target abundance (FLAG IP / Myc IP barcode read proportion) (log2 ratio); each designed protein is fused to an ALFA-tag nanobody in HEK293 cells to bring the named protein to FLAG-tagged glucokinase (GCK); Myc marks an untargeted standard; higher = target protein stabilised (more abundant)
# Details: target protein: 3xFLAG-MCP-GCK-ALFA reporter; HEK293 landing pad (RPLP)
# Procedure, shortened: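 HEK293 landing-pad cells received a recombined binder library fused to the ALFA nanobody and were induced with 2 μg mL^−1 doxycycline, then transfected with a plasmid encoding a FLAG-tagged target and a Myc-tagged standard. Lysates were collected after 48 h for anti-FLAG and anti-Myc immunoprecipitation, and the circular RNA barcodes were reverse transcribed, amplified and sequenced. Target abundance for each binder is the median log2 ratio of FLAG to Myc barcode read proportions. Barcodes had to reach a proportion of at least 10^−7 in both replicates, each binder needed at least 3 barcodes per replicate, a pseudocount of 10^−6 was applied, and the two replicates were pooled.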
row,Binder,median log2 fold change
1,B1,0.24
2,B2,0.316
3,B3,0.285
4,B4,-0.375
5,B5,-0.695
6,B6,0.0336
7,B7,0.287
8,B8,0.141
9,B9,-0.309
10,B10,0.299
11,B11,0.309
12,B12,-0.111
13,B13,-0.411
14,B14,0.213
15,B15,0.181
16,B16,0.309
17,B17,-0.389
18,B18,-0.41
19,B19,0.177
20,B20,-0.231
21,B21,0.244
22,B22,0.111
23,B23,0.274
24,B24,0.146
25,B25,0.214
26,B26,0.129
27,B27,-0.127
28,B28,0.427
29,B29,0.111
